# Assay results: PubChem BioAssay AID1508642 (National Center for Advancing Translational Sciences (NCATS), 2021)
# Out of some 43,000 compounds screened, about 200 (0.47%) were called active. Roughly 12% stayed inconclusive and do not appear here. Calls come from the whole dose curve; as a rule, active = well fitted cell-killing curve with a large enough effect; inconclusive = small, poorly fitted or top-dose-only effect, or effect the other way; inactive = flat fitted curve, though single readings scatter. The list shows a part of the results.
# Test: Cell viability qHTS assay in S16 Pmp22-F2sN cells; note: nearly all actives have a fitted effect of over 65% in size
# Details: S16 Pmp22-F2sN Schwann cells viability, CellTiter-Glo, 24 h; series mostly up to 57.5 µM; activity change, negative = cytotoxicity: at the top concentration
# Method in brief: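 Viability was measured by CellTiter-Glo luminescence (15 min, room temperature). This followed 24 h at 37 °C of compound exposure (23 nL pin transfer) in S16 Pmp22-F2sN Schwann cells, 500-1,000 per well.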
# % is set by controls: 0 for no effect and ±100 for the full control effect.
row,Compound,"activity change, negative = cytotoxicity"
1,COc1cc(-c2noc(-c3ccc(NCc4ccco4)c([N+](=O)[O-])c3)n2)cc(OC)c1OC,inactive: 4.3%
2,CCCCN(CC)C(=O)c1cc2c(=O)n3ccccc3nc2n1C,inactive: 17.5%
3,Cc1nn(C)c2c1c(C(F)(F)F)cc(=O)n2CC(=O)N1CCCCC1C (configuration not stated),inactive: -3.46%
4,CCOC(=O)c1nc(Nc2ccccc2OC)c2ccccc2n1,inactive: 10.3%
5,Cc1cn2c(=O)cc(COc3ccc(NC(=O)c4ccccc4C)cc3)nc2s1,inactive: 21.4%
6,O=C(Nc1ccc(F)cc1F)C1CCN(S(=O)(=O)c2ccc3[nH]c(=O)ccc3c2)CC1,inactive: 14.5%
7,CCc1ccc(NC(=O)Cn2nnc(C(=O)NCc3ccc(C)cc3)c2N)cc1,inactive: -0.0922%
8,CC(=O)c1ccc(N2C(=O)N(Cc3ccccc3C#N)c3ccccc3S2(=O)=O)cc1,inactive: 5.29%
9,CCOc1ccc(C(=O)NCC(c2ccc3c(c2)OCO3)N2CCOCC2)cc1 (configuration not stated),inactive: 3.6%
10,CCc1ccc(OCc2nc(-c3ccc(OC)c(OC)c3)no2)c(Br)c1,inactive: -4.95%
11,COc1cc(NC(=O)CCc2nc3cccnc3n2Cc2cccs2)cc(OC)c1OC,inactive: 2.98%
12,CC1(C(=O)NC2CCCCC2)Cc2ccccc2C(=O)N1Cc1ccccc1Cl (configuration not stated),inactive: -0.706%
13,O=C(CCc1nc2cccnc2n1-c1ccccc1)Nc1ccc(Cl)c(Cl)c1,inactive: 0.168%
14,COc1ccc(Nc2c(-c3ccc(N4CCOCC4)cc3)nc3ncccn23)cc1OC,inactive: -3.03%
15,CC(C)c1cnc2c(c1SCC(=O)N1CCCCC1)c(=O)n(C)c(=O)n2C,inactive: -1.32%
16,CCOc1cc(CN2CCN(S(=O)(=O)c3ccc(C)cc3)CC2)ccc1OC,inactive: -3.66%
17,O=C(Nc1nnc(S(=O)(=O)N2CCOCC2)s1)c1ccccc1F,inactive: -19.2%
18,Cc1ccc(NC(=O)C(C)Sc2nc(-c3ccccc3)c(C#N)c(=O)[nH]2)c(C)c1 (configuration not stated),inactive: 1.3%
19,O=c1c(N2CCc3ccccc3C2)csc2ccc(Cl)cc12,inactive: 7.86%
20,CC(C)Cc1nn2c(=O)cc(COC(=O)c3ccc(NC(=O)CCc4ccccc4)cc3)nc2s1,inactive: 12.6%
21,CCc1ccc2c(c1)NC(c1ccc(C)cc1)=NC(c1cccs1)=N2,inactive: 2.58%
22,CCOC(=O)N1CCc2c(sc3c2c(=O)n(Cc2ccccc2)c(=O)n3CC(=O)Nc2ccc(C)cc2C)C1,inactive: -6.73%
23,CCc1nc(-c2cc(S(=O)(=O)N3CCN(c4ccccc4F)CC3)ccc2OC)no1,inactive: 4.72%
24,O=C(Cn1c(=O)c(C(F)(F)F)nc2ccccc21)Nc1cccc(Br)c1,inactive: 17.7%

row,Compound,"activity change, negative = cytotoxicity"
1,COc1ccc(CCNC(=O)c2c(C)oc3ncnc(N4CCOCC4)c23)c(OC)c1,inactive: 0.679%
2,Cc1ccc(S(=O)(=O)Nc2cc3c(cc2C)n(C)c(=O)c(=O)n3C)c(C)c1,inactive: 2.89%
3,Cc1cc(C)cc(Nc2cc(C(=O)NC3CCC(C)CC3)c3ccccc3n2)c1 (configuration not stated),inactive: 12.8%
4,Cc1ccc(CNC(=O)C2CCCN(S(=O)(=O)c3cn(C)cn3)C2)cc1 (configuration not stated),inactive: 1.22%
5,O=C(NCCc1ccccc1)c1ccc(CS(=O)(=O)Cc2ccccc2Cl)o1,inactive: -0.19%
6,Cc1cc(=O)n(CC(=O)NCc2ccc(OC(C)C)cc2)c2c1c(C)nn2-c1cccc(F)c1,inactive: 4.43%
7,C=CCc1cccc2cc(C(=O)NCCc3c(C)[nH]c4c(C)cccc34)c(=O)oc12,inactive: 2.17%
8,CCN(CC)c1ccc(NC(=O)CCc2nc3cccnc3n2Cc2cccs2)c(C)c1,inactive: -13.7%
9,O=C(NCC(c1ccc2c(c1)OCO2)N1CCOCC1)C(=O)Nc1ccccc1 (configuration not stated),inactive: 0.587%
10,NS(=O)(=O)c1ccc(CCNC(=O)Cn2c(-c3cccs3)cc3ccccc32)cc1,inactive: -26.1%
11,CCOC(=O)N1CCC(NC(=O)c2cnn(-c3ccc(F)cc3F)c2C2CCN(C(=O)OC(C)(C)C)CC2)CC1,inactive: -7.29%
12,Cc1ccccc1NC(=O)c1ccc2c(O)c(S(=O)(=O)c3ccccc3)c(=O)[nH]c2c1,inactive: 1.93%
13,CNc1ccc(-c2nc(-c3ccco3)no2)cc1[N+](=O)[O-],inactive: -0.27%
14,O=C(C1CCCN(S(=O)(=O)c2ccc(Br)s2)C1)N1CCN(c2cccc(Cl)c2)CC1 (configuration not stated),inactive: -0.214%
15,Cc1cccc(N2CCN(S(=O)(=O)c3ccc(-c4cc(C(F)(F)F)on4)s3)CC2)c1C,inactive: 2.66%
16,Cc1ccccc1OCC(=O)Nc1ccc2nc(SCC(=O)N3CCc4ccccc43)sc2c1,inactive: 21.2%
17,COc1ccc2c(c1)c1c(c(=O)n(-c3ccc(C)cc3)c(=O)n1CC(=O)NCc1ccc(C)cc1)n2C,inactive: 12.2%
18,COc1ccc(Cl)cc1NC(=O)c1nnn(Cc2cccc(C(F)(F)F)c2)c1N,inactive: 5.18%
19,COc1ccc(OCC(=O)Nc2cc(-c3nc4ccccc4s3)ccc2C)cc1,inactive: 11.7%
20,COc1cccc(C2C(C(=O)Nc3ccc(Cl)cc3)=C(C)Nc3nc4ccccc4n32)c1 (configuration not stated),inactive: 10.9%
21,CCC(C)Sc1oc(-c2ccco2)nc1S(=O)(=O)c1ccc(C)cc1 (configuration not stated),inactive: -2.66%
22,COc1cccc(CC(=O)Nc2ccc(-c3nc4ccccc4s3)cc2)c1,inactive: 33.5%
23,Cc1ccc(CNc2ncnc3c2cnn3-c2ccc(Cl)cc2)cc1,inactive: 4.49%
